{"source": "paper PMC7819943", "about": "“Rice protein-binding microarrays: a tool to detect cis-acting elements near promoter regions in rice”", "note": "The other results are listed elsewhere or left out."}
{"target": "T1, OsWOX13 (Oryza sativa, UniProt Q5QMM3 1-267)", "T1 sequence": "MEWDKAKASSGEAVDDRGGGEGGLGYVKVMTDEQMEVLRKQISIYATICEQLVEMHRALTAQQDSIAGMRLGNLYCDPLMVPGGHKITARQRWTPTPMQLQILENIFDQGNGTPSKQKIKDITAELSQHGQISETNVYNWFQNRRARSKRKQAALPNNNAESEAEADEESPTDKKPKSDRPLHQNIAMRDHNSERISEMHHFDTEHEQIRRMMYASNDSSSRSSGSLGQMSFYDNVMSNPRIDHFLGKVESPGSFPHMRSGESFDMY", "assay": "protein-binding microarray (RPBM); PBS, 2% BSA, 51.3 ng/ul salmon testes DNA, 50 uM zinc acetate, 200 nM TF, 25 C, 1 h; high values mean tight binding", "details": "protein: recombinant; tags: N-terminal polyhistidine and DsRed monomer fusion (pET32a); label: CyDye5-dUTP incorporated in the synthesized complementary strand; 3' TTTTT single-stranded linker to array surface; dsDNA, one strand shown", "procedure,_shortened": "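Per-feature fluorescence intensity (arbitrary units), read on an Axon 4000B scanner, is the binding signal. Transcription factors carrying an N-terminal polyhistidine tag and DsRed fusion were expressed in E. coli BL21-CodonPlus and purified on Ni–NTA. A custom Agilent array, made double-stranded by primer extension with Cy5-dUTP and blocked with 2% BSA, was incubated with 200 nM protein in PBS, 2% BSA, salmon testes DNA and 50 µM zinc acetate at 25 °C for 1 h and then washed.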"}
{"sequence": "GCGTTTTCGGCGGGGAACGCGGGGAGGCGGGTGGGGTTGACGGAGTCACCTAGTGCAG", "binding signal": "5610 fluorescence intensity (a.u.)"}
{"sequence": "GAGAGTGGTTAACAAAGTCAATCAGGAGATCCGTAAGACACGGAGTCACCTAGTGCAG", "binding signal": "6890 fluorescence intensity (a.u.)"}
{"sequence": "ATTTGCTGATTGCCGAACTGCTACTGAACTGCTGACTACTCGGAGTCACCTAGTGCAG", "binding signal": "20800 fluorescence intensity (a.u.)"}
{"sequence": "ATTTGCCGTTTAATTTTATTTTAAATCAAACATTTTAATCCGGAGTCACCTAGTGCAG", "binding signal": "12600 fluorescence intensity (a.u.)"}
{"sequence": "TTTATAATTTATGTCTTGAAGCTAGAGCCGTGCCAAACAACGGAGTCACCTAGTGCAG", "binding signal": "3690 fluorescence intensity (a.u.)"}
{"sequence": "TCTCTAATTAGGACTCTTTTGACGTGCCTCATCACAGCAGCGGAGTCACCTAGTGCAG", "binding signal": "39700 fluorescence intensity (a.u.)"}
{"sequence": "CACATTCAGTTCTAGATTAATTTATTTTGGATGAATGTATCGGAGTCACCTAGTGCAG", "binding signal": "6060 fluorescence intensity (a.u.)"}
{"sequence": "TCAAAATGTATGATGTCATTGACTTTTCACGTAACGTTTGCGGAGTCACCTAGTGCAG", "binding signal": "3290 fluorescence intensity (a.u.)"}
{"sequence": "TATATTAATACTTAATTGATTATATATTGTTTTACGTGCGCGGAGTCACCTAGTGCAG", "binding signal": "38600 fluorescence intensity (a.u.)"}
{"sequence": "ATAATTGAAAATTGATTAGAGTACCTTTTGATGAGATAGCCGGAGTCACCTAGTGCAG", "binding signal": "57300 fluorescence intensity (a.u.)"}
{"sequence": "CAGATCACTAAACCAATCATCAGCTAACATCGCGGGAGCACGGAGTCACCTAGTGCAG", "binding signal": "4090 fluorescence intensity (a.u.)"}
{"sequence": "TTAATTTGTTGTGATTAACGTGGCATGCATGACACTAAAGCGGAGTCACCTAGTGCAG", "binding signal": "26900 fluorescence intensity (a.u.)"}
{"sequence": "TACCTAAAAGAACCGCCAATCAACCGCCTTACTCATGTTACGGAGTCACCTAGTGCAG", "binding signal": "3360 fluorescence intensity (a.u.)"}
{"sequence": "GAAATTACATATGACAAATCCAGAATTTTGATGGAGTGGTCGGAGTCACCTAGTGCAG", "binding signal": "6770 fluorescence intensity (a.u.)"}
{"sequence": "TCACTGACACCAATTAAGGATCGAGTCGACAAGGGAGAAACGGAGTCACCTAGTGCAG", "binding signal": "5910 fluorescence intensity (a.u.)"}
{"sequence": "ATAAACGAGCAAATTGATGTGAGATCCACTAGAGAGGAGACGGAGTCACCTAGTGCAG", "binding signal": "15400 fluorescence intensity (a.u.)"}
{"sequence": "CACTTAATTGTATACCAATTGAGATTTCCCGCAGTACCACCGGAGTCACCTAGTGCAG", "binding signal": "42200 fluorescence intensity (a.u.)"}
{"sequence": "CCTCAAAATTTCGAAAATTGCGCCCGTCTTCCTTCCCTTCCGGAGTCACCTAGTGCAG", "binding signal": "3530 fluorescence intensity (a.u.)"}
{"sequence": "CAAAATAAATTTGAACAAAATTTTGCCCAAAATCATGAGACGGAGTCACCTAGTGCAG", "binding signal": "9600 fluorescence intensity (a.u.)"}
{"sequence": "GTTTGTCTTAATTGTACATGGAATTTATGAACTAGAAATTCGGAGTCACCTAGTGCAG", "binding signal": "6390 fluorescence intensity (a.u.)"}
{"sequence": "TCTATCACTCAATCAAAGAGCACTATAACCCACTTTTACACGGAGTCACCTAGTGCAG", "binding signal": "5680 fluorescence intensity (a.u.)"}
{"sequence": "GATTCAATCAAACAGTTATTCCTGTGTTTTGCAATTCTCTCGGAGTCACCTAGTGCAG", "binding signal": "17300 fluorescence intensity (a.u.)"}
{"sequence": "TATAAATTTGGACACATATATGAAACACATATATTGATCCCGGAGTCACCTAGTGCAG", "binding signal": "8100 fluorescence intensity (a.u.)"}
{"sequence": "GTGGCTGTGATTGTGTGATTGTGTACCTGTTTGTAGTGAACGGAGTCACCTAGTGCAG", "binding signal": "20500 fluorescence intensity (a.u.)"}
{"sequence": "CCTCTCGTCCCGTCAATCACAGCACCAACTGCTACCGGCGCGGAGTCACCTAGTGCAG", "binding signal": "28100 fluorescence intensity (a.u.)"}
{"sequence": "CTTGATCAATTAACTTAATATGACTGAATTATGCCAATATCGGAGTCACCTAGTGCAG", "binding signal": "38500 fluorescence intensity (a.u.)"}
{"sequence": "GCAGGATTATTCCTGATTCATAGATACTAACAAGTGATTCCGGAGTCACCTAGTGCAG", "binding signal": "3180 fluorescence intensity (a.u.)"}
{"sequence": "AATTTAATGTAAAATTTAGTACCTAATAGTATCTAGGTATCGGAGTCACCTAGTGCAG", "binding signal": "7910 fluorescence intensity (a.u.)"}
{"sequence": "ACTCTGATGCACAAATTGCTAAACTATGCAGAATCTGACTCGGAGTCACCTAGTGCAG", "binding signal": "4160 fluorescence intensity (a.u.)"}
{"sequence": "ATTGTGTGAAGGAAGATGATTGGATGCTGATTTATAGATGCGGAGTCACCTAGTGCAG", "binding signal": "19800 fluorescence intensity (a.u.)"}
{"sequence": "TTGGATAATTGATAAATAGAATAGTAGCAAATACTTAAATCGGAGTCACCTAGTGCAG", "binding signal": "28900 fluorescence intensity (a.u.)"}
{"sequence": "AAGAGACCGGAAATCAATCCATTAGTCAATAGGTGTGAAACGGAGTCACCTAGTGCAG", "binding signal": "3800 fluorescence intensity (a.u.)"}
{"sequence": "TTTCAATCGCGTAAAATGACCATTCCTATTTCTCCCTAACCGGAGTCACCTAGTGCAG", "binding signal": "3220 fluorescence intensity (a.u.)"}
{"sequence": "TTGCATTAATAATTAACCCAATCTGCAGACTGCAGTGCAGCGGAGTCACCTAGTGCAG", "binding signal": "7050 fluorescence intensity (a.u.)"}
{"sequence": "ATGAAAATTGACAAACATTAGCCATTAGTATAAACATTTTCGGAGTCACCTAGTGCAG", "binding signal": "10200 fluorescence intensity (a.u.)"}
{"sequence": "TTAAGATTGATTTTAAATATATTTTAAGCAAACAATTTTACGGAGTCACCTAGTGCAG", "binding signal": "21500 fluorescence intensity (a.u.)"}
{"sequence": "ATAATTAATGTAGCAAGAGAAAATGTATGCATGCTAAGGTCGGAGTCACCTAGTGCAG", "binding signal": "5240 fluorescence intensity (a.u.)"}
{"sequence": "AAATAATTAAGAAATTATAAAAGAAGTCTGGGCATGCTAGCGGAGTCACCTAGTGCAG", "binding signal": "14100 fluorescence intensity (a.u.)"}
{"sequence": "CTCTTTCTAATCAACTGTAACCCTACAGTTGTTTTGTTCTCGGAGTCACCTAGTGCAG", "binding signal": "3370 fluorescence intensity (a.u.)"}
{"sequence": "GTTTCAATGATTGGTTGTTCACCCAACCCAAGTACCCAGCCGGAGTCACCTAGTGCAG", "binding signal": "57400 fluorescence intensity (a.u.)"}
{"sequence": "AGCATGGTGATTGAACGCAGCTTGGACAATGCAGAGGATGCGGAGTCACCTAGTGCAG", "binding signal": "40600 fluorescence intensity (a.u.)"}
{"sequence": "TTAAAATTGTTAAGAGAGTCAAATTGCATCGGCTTTAATACGGAGTCACCTAGTGCAG", "binding signal": "3190 fluorescence intensity (a.u.)"}
